# Some of the results follow.
# B1: Siglec-G (Mus musculus), Q80ZE3 (protein)
# chain: MSLLLFLLSFLLDGPQGQMESYFLQVQRIVKAQEGLCIFVPCSFSSPEGKWLNRSPLYGYWFKGIRKPSLSFPVATNNKDKVLEWEARGRFQLLGDISKKNCSLLIKDVQWGDSTNYFFRMERGFERFSFKEEFRLQVEALTQKPDIFIPEVLEPGEPVTVVCLFSWTFNQCPAPSFSWMGDAVSFQESRPHTSNYSVLSFIPGLQHHDTELTCQLDFSRMSTQRTVRLRVAYAPRSLAISIFHDNVSVPDLHENPSHLEVQQGQSLRLLCTADSQPPATLSWVLEDQVLSWSSPVGSRTLALELPWVKAGDSGHYTCQAENRLGSQQHTLDLSVLYPPQDLRVTVSQANRTVLEILRNAISLPVLEGQSLCLVCVTYSNPPANVSWAWVTQTLIPIQSSEPGVLELPLVQREHEGEFTCAAQNPLGAQRISLSLSVHYPPQMSSPSCSWEAKGLHCNCSSRAWPAPSLRWRLGEGLLEGNSSNASFTVTFSSLGPWVNSSLSLLQELGPSLWLSCESWNTHGAQTTSVLLLPDKDSATAFSKGAVLGFGITALLALCLIVVIVKTLQKKGTQEEPSRPKLSRGSTILDYINVVPKTRSLARNWKAEPDAPSRSSPLDTHFPKPKKKQKDPHFTYPGCPDPTSSSQVPVSENNPEELHYAALNFSRLRLQETQDPQDTYSDYTEVRVH
# Legend:
# Assay in all cases: glycan array binding signal (z-score within array); higher = stronger binding
# Details in all cases: glycan notation: IUPAC condensed, linker removed
# [1] = molecular target: Man(a1-2)Man(a1-2)Man(a1-6)[Man(a1-3)]Man
# How it was run: (§1)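 The binding signal is a Z-score computed within each array and averaged over linkers. Arrays of the same protein sequence at different concentrations or buffers were also averaged together. Data originate from 3228 arrays in the Consortium for Functional Glycomics database, kept only where the protein sequence was available.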
# Man(a1-2)Man(a1-3)Man = molecular target: Man(a1-2)Man(a1-3)Man
# How it was run: as §1
# [2] = molecular target: Man(a1-2)Man(a1-3)[Man(a1-2)Man(a1-6)]Man
# How it was run: as §1
# [3] = molecular target: Man(a1-2)Man(a1-3)[Man(a1-2)Man(a1-6)]Man(a1-6)[Man(a1-2)Man(a1-2)Man(a1-3)]Man(b1-4)GlcNAc(b1-4)GlcNAc
# How it was run: as §1
# [4] = molecular target: Man(a1-2)Man(a1-3)[Man(a1-2)Man(a1-6)]Man(a1-6)[Man(a1-3)[Man(a1-6)]Man(a1-6)]Man(b1-4)GlcNAc(b1-4)GlcNAc
# How it was run: as §1
# [5] = molecular target: Man(a1-2)Man(a1-3)[Man(a1-6)]Man(a1-6)[Man(a1-2)Man(a1-3)]Man(b1-4)GlcNAc(b1-4)GlcNAc
# How it was run: as §1
# [6] = molecular target: Man(a1-2)Man(a1-6)[Man(a1-3)]Man(a1-6)[Man(a1-2)Man(a1-2)Man(a1-3)]Man(b1-4)GlcNAc(b1-4)GlcNAc
# How it was run: as §1
# Man(a1-3)[Man(a1-6)]Man = molecular target: Man(a1-3)[Man(a1-6)]Man
# How it was run: as §1
# [7] = molecular target: Man(a1-3)[Man(a1-6)]Man(a1-6)[Man(a1-3)]Man(b1-4)GlcNAc(b1-4)GlcNAc
# How it was run: as §1
# Neu5Ac(a2-3)Gal = molecular target: Neu5Ac(a2-3)Gal
# How it was run: as §1
# [8] = molecular target: Neu5Ac(a2-3)Gal(b1-3)GalNAc
# How it was run: as §1
# [9] = molecular target: Neu5Ac(a2-3)Gal(b1-3)GalNAc6S
# How it was run: as §1
# [10] = molecular target: Neu5Ac(a2-3)Gal(b1-3)GlcNAc
# How it was run: as §1
# [11] = molecular target: Neu5Ac(a2-3)Gal(b1-3)[Fuc(a1-4)]GlcNAc
# How it was run: as §1
# [12] = molecular target: Neu5Ac(a2-3)Gal(b1-3)[Neu5Ac(a2-3)Gal(b1-4)]GlcNAc
# How it was run: as §1
# [13] = molecular target: Neu5Ac(a2-3)Gal(b1-3)[Neu5Ac(a2-6)]GalNAc
# How it was run: as §1
# Neu5Ac(a2-3)Gal(b1-4)Glc = molecular target: Neu5Ac(a2-3)Gal(b1-4)Glc
# How it was run: as §1
# [14] = molecular target: Neu5Ac(a2-3)Gal(b1-4)GlcNAc
# How it was run: as §1
# [15] = molecular target: Neu5Ac(a2-3)Gal(b1-4)GlcNAc(b1-3)Gal(b1-4)GlcNAc
# How it was run: as §1
# [16] = molecular target: Neu5Ac(a2-3)Gal(b1-4)GlcNAc(b1-3)Gal(b1-4)GlcNAc(b1-3)Gal(b1-4)GlcNAc
# How it was run: as §1
# [17] = molecular target: Neu5Ac(a2-3)Gal(b1-4)GlcNAc6S
# How it was run: as §1
# [18] = molecular target: Neu5Ac(a2-3)Gal(b1-4)[Fuc(a1-3)]GlcNAc
# How it was run: as §1
# [19] = molecular target: Neu5Ac(a2-3)Gal(b1-4)[Fuc(a1-3)]GlcNAc(b1-3)Gal
# How it was run: as §1
# [20] = molecular target: Neu5Ac(a2-3)Gal(b1-4)[Fuc(a1-3)]GlcNAc(b1-3)Gal(b1-4)GlcNAc
# How it was run: as §1
# [21] = molecular target: Neu5Ac(a2-3)Gal(b1-4)[Fuc(a1-3)]GlcNAc(b1-3)Gal(b1-4)[Fuc(a1-3)]GlcNAc(b1-3)Gal(b1-4)[Fuc(a1-3)]GlcNAc
# How it was run: as §1
# [22] = molecular target: Neu5Ac(a2-3)Gal(b1-4)[Fuc(a1-3)]GlcNAc6S
# How it was run: as §1
# [23] = molecular target: Neu5Ac(a2-3)Gal6S(b1-4)GlcNAc
# How it was run: as §1
# Neu5Ac(a2-3)GalNAc = molecular target: Neu5Ac(a2-3)GalNAc
# How it was run: as §1
# [24] = molecular target: Neu5Ac(a2-3)[GalNAc(b1-4)]Gal(b1-4)Glc
# How it was run: as §1
# [25] = molecular target: Neu5Ac(a2-3)[GalNAc(b1-4)]Gal(b1-4)GlcNAc
# How it was run: as §1
# [26] = molecular target: Neu5Ac(a2-3)[Neu5Ac(a2-6)]GalNAc
# How it was run: as §1
# Neu5Ac(a2-6)Gal = molecular target: Neu5Ac(a2-6)Gal
# How it was run: as §1
# Neu5Ac(a2-6)Gal(b1-4)Glc = molecular target: Neu5Ac(a2-6)Gal(b1-4)Glc
# How it was run: as §1
# [27] = molecular target: Neu5Ac(a2-6)Gal(b1-4)GlcNAc
# How it was run: as §1
# [28] = molecular target: Neu5Ac(a2-6)Gal(b1-4)GlcNAc(b1-3)Gal(b1-4)GlcNAc
# How it was run: as §1
# [29] = molecular target: Neu5Ac(a2-6)Gal(b1-4)GlcNAc(b1-3)Gal(b1-4)[Fuc(a1-3)]GlcNAc(b1-3)Gal(b1-4)[Fuc(a1-3)]GlcNAc
# How it was run: as §1
# [30] = molecular target: Neu5Ac(a2-6)Gal(b1-4)GlcNAc6S
# How it was run: as §1
# Neu5Ac(a2-6)GalNAc = molecular target: Neu5Ac(a2-6)GalNAc
# How it was run: as §1
# Neu5Ac(a2-8)Neu5Ac = molecular target: Neu5Ac(a2-8)Neu5Ac
# How it was run: as §1
# [31] = molecular target: Neu5Ac(a2-8)Neu5Ac(a2-3)Gal(b1-4)Glc
# How it was run: as §1
# [32] = molecular target: Neu5Ac(a2-8)Neu5Ac(a2-3)[GalNAc(b1-4)]Gal(b1-4)Glc
# How it was run: as §1
# [33] = molecular target: Neu5Ac(a2-8)Neu5Ac(a2-8)Neu5Ac
# How it was run: as §1
# [34] = molecular target: Neu5Ac(a2-8)Neu5Ac(a2-8)Neu5Ac(a2-3)Gal(b1-4)Glc
# How it was run: as §1
# [35] = molecular target: Neu5Ac(a2-8)Neu5Ac(a2-8)Neu5Ac(a2-3)[GalNAc(b1-4)]Gal(b1-4)Glc
# How it was run: as §1
# Neu5Ac(b1-6)GalNAc = molecular target: Neu5Ac(b1-6)GalNAc
# How it was run: as §1
# [36] = molecular target: Neu5Ac(b2-6)Gal(b1-4)GlcNAc
# How it was run: as §1
# [37] = molecular target: Neu5Ac9Ac(a2-6)Gal(b1-4)GlcNAc
# How it was run: as §1
# [38] = molecular target: Neu5Gc(a2-3)Gal(b1-3)GlcNAc
# How it was run: as §1
# [39] = molecular target: Neu5Gc(a2-3)Gal(b1-3)[Fuc(a1-4)]GlcNAc
# How it was run: as §1
# Neu5Gc(a2-3)Gal(b1-4)Glc = molecular target: Neu5Gc(a2-3)Gal(b1-4)Glc
# How it was run: as §1
# [40] = molecular target: Neu5Gc(a2-3)Gal(b1-4)GlcNAc
# How it was run: as §1
# [41] = molecular target: Neu5Gc(a2-3)Gal(b1-4)[Fuc(a1-3)]GlcNAc
# How it was run: as §1
# [42] = molecular target: Neu5Gc(a2-6)Gal(b1-4)GlcNAc
# How it was run: as §1
# Neu5Gc(a2-6)GalNAc = molecular target: Neu5Gc(a2-6)GalNAc
# How it was run: as §1
binder,measurement,setting,value
B1,glycan array binding signal (z-score),[1],-0.025
same,glycan array binding signal (z-score),Man(a1-2)Man(a1-3)Man,-0.154
same,glycan array binding signal (z-score),[2],0.542
same,glycan array binding signal (z-score),[3],-0.004
same,glycan array binding signal (z-score),[4],-0.045
same,glycan array binding signal (z-score),[5],0.018
same,glycan array binding signal (z-score),[6],-0.094
same,glycan array binding signal (z-score),Man(a1-3)[Man(a1-6)]Man,0.211
same,glycan array binding signal (z-score),[7],-0.08
same,glycan array binding signal (z-score),Neu5Ac(a2-3)Gal,-0.095
same,glycan array binding signal (z-score),[8],0.414
same,glycan array binding signal (z-score),[9],-0.222
same,glycan array binding signal (z-score),[10],-0.048
same,glycan array binding signal (z-score),[11],-0.371
same,glycan array binding signal (z-score),[12],0.903
same,glycan array binding signal (z-score),[13],-0.157
same,glycan array binding signal (z-score),Neu5Ac(a2-3)Gal(b1-4)Glc,-0.188
same,glycan array binding signal (z-score),[14],0.007
same,glycan array binding signal (z-score),[15],-0.195
same,glycan array binding signal (z-score),[16],0.063
same,glycan array binding signal (z-score),[17],-0.233
same,glycan array binding signal (z-score),[18],0.045
same,glycan array binding signal (z-score),[19],-0.207
same,glycan array binding signal (z-score),[20],0.188
same,glycan array binding signal (z-score),[21],1
same,glycan array binding signal (z-score),[22],-0.019
same,glycan array binding signal (z-score),[23],-0.195
same,glycan array binding signal (z-score),Neu5Ac(a2-3)GalNAc,-0.263
same,glycan array binding signal (z-score),[24],-0.37
same,glycan array binding signal (z-score),[25],-0.305
same,glycan array binding signal (z-score),[26],-0.239
same,glycan array binding signal (z-score),Neu5Ac(a2-6)Gal,-0.146
same,glycan array binding signal (z-score),Neu5Ac(a2-6)Gal(b1-4)Glc,-0.259
same,glycan array binding signal (z-score),[27],-0.232
same,glycan array binding signal (z-score),[28],-0.434
same,glycan array binding signal (z-score),[29],-0.007
same,glycan array binding signal (z-score),[30],-0.134
same,glycan array binding signal (z-score),Neu5Ac(a2-6)GalNAc,-0.259
same,glycan array binding signal (z-score),Neu5Ac(a2-8)Neu5Ac,-0.286
same,glycan array binding signal (z-score),[31],-0.205
same,glycan array binding signal (z-score),[32],-0.236
same,glycan array binding signal (z-score),[33],1.22
same,glycan array binding signal (z-score),[34],-0.228
same,glycan array binding signal (z-score),[35],-0.348
same,glycan array binding signal (z-score),Neu5Ac(b1-6)GalNAc,-0.272
same,glycan array binding signal (z-score),[36],-0.286
same,glycan array binding signal (z-score),[37],-0.105
same,glycan array binding signal (z-score),[38],-0.076
same,glycan array binding signal (z-score),[39],0.241
same,glycan array binding signal (z-score),Neu5Gc(a2-3)Gal(b1-4)Glc,-0.022
same,glycan array binding signal (z-score),[40],-0.27
same,glycan array binding signal (z-score),[41],-0.097
same,glycan array binding signal (z-score),[42],-0.344
same,glycan array binding signal (z-score),Neu5Gc(a2-6)GalNAc,-0.338
